By IC50 is meant the dose at which the fit gives 50% viability; a limit (>, <) means that the fit lies beyond the doses tested. AUC sums up the same curve from the lowest dose to the 256-fold higher top dose: 1 means no effect, lower means more sensitive. For some assays here: A top dose marked as inferred was calculated from the reported fits.
Assays:
Test in all cases: Viability of human cancer cell lines after 72 h of drug (GDSC screen)
17-AAG = compound: C=CCNC1=C2C[C@@H](C)C[C@H](OC)[C@H](O)[C@@H](C)/C=C(\C)[C@H](OC(N)=O)[C@@H](OC)/C=C\C=C(/C)C(=O)NC(=CC1=O)C2=O [17-AAG]; conditions: top dose 1 µM
Procedure: (§1)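 Human cancer cell lines in 384-well plates, medium with 10% serum, drug for 72 h over a 256-fold dose range (nine 2-fold or five 4-fold steps up to the top dose). Adherent lines were fixed and stained with the nucleic acid dye Syto60, suspension lines read with resazurin; signal relative to control wells, capped at 0 and 100%. One two-parameter sigmoid per drug and line, fitted in a mixed model over all curves with the slope shared within a line.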

CCT018159 = compound: CCc1cc(-c2n[nH]c(C)c2-c2ccc3c(c2)OCCO3)c(O)cc1O [CCT018159]; conditions: top dose 10 µM; top dose inferred
Procedure: as §1

BIX02189 = compound: CN(C)Cc1cccc(N=C(c2ccccc2)c2c(O)[nH]c3cc(C(=O)N(C)C)ccc23)c1 [BIX02189]; conditions: top dose 20 µM; top dose inferred
Procedure: as §1

Dimethyloxalylglycine = compound: COC(=O)CNC(=O)C(=O)OC [Dimethyloxalylglycine]; conditions: top dose 4000 µM; top dose inferred
Procedure: as §1

Doxorubicin = compound: COc1cccc2c1C(=O)c1c(O)c3c(c(O)c1C2=O)C[C@@](O)(C(=O)CO)C[C@@H]3O[C@H]1C[C@H](N)[C@H](O)[C@H](C)O1 [Doxorubicin]; conditions: top dose 1.024 µM
Procedure: as §1

OSI-027 = compound: COc1cccc2cc(-c3nc([C@H]4CC[C@H](C(=O)O)CC4)n4ncnc(N)c34)[nH]c12 [OSI-027]; conditions: top dose 20 µM
Procedure: as §1

Vismodegib = compound: CS(=O)(=O)c1ccc(C(=O)Nc2ccc(Cl)c(-c3ccccn3)c2)c(Cl)c1 [Vismodegib]; conditions: top dose 10 µM; top dose inferred
Procedure: as §1

VX-11e = compound: Cc1cnc(Nc2ccc(F)cc2Cl)nc1-c1c[nH]c(C(=O)N[C@H](CO)c2cccc(Cl)c2)c1 [VX-11e]; conditions: top dose 5.12 µM; top dose inferred
Procedure: as §1

TG101348 = compound: Cc1cnc(Nc2ccc(OCCN3CCCC3)cc2)nc1Nc1cccc(S(=O)(=O)NC(C)(C)C)c1 [TG101348]; conditions: top dose 10.24 µM
Procedure: as §1

UNC1215 = compound: O=C(c1ccc(C(=O)N2CCC(N3CCCC3)CC2)c(Nc2ccccc2)c1)N1CCC(N2CCCC2)CC1 [UNC1215]; conditions: top dose 1 µM; top dose inferred
Procedure: as §1

## JHH-7 (liver, adherent)
17-AAG
  AUC: 0.672
  IC50: 0.182 µM
CCT018159
  AUC: 0.921
  IC50: > 10 µM
BIX02189
  AUC: 0.987
  IC50: > 20 µM
Dimethyloxalylglycine
  AUC: 0.316
  IC50: 79.2 µM
Doxorubicin
  AUC: 0.405
  IC50: 0.0359 µM
OSI-027
  AUC: 0.615
  IC50: 2.53 µM
Vismodegib
  AUC: 0.98
  IC50: > 10 µM
VX-11e
  AUC: 0.974
  IC50: > 5.12 µM
TG101348
  AUC: 0.877
  IC50: 9.16 µM
UNC1215
  AUC: 0.986
  IC50: > 1 µM

## CMK (acute myeloid leukaemia, suspension)
17-AAG
  AUC: 0.966
  IC50: > 1 µM
CCT018159
  AUC: 0.937
  IC50: > 10 µM
BIX02189
  AUC: 0.801
  IC50: 8.08 µM
Dimethyloxalylglycine
  AUC: 0.392
  IC50: 133 µM
Doxorubicin
  AUC: 0.535
  IC50: 0.0786 µM
OSI-027
  AUC: 0.206
  IC50: 0.204 µM
Vismodegib
  AUC: 0.984
  IC50: > 10 µM
VX-11e
  AUC: 0.848
  IC50: 2.96 µM
TG101348
  AUC: 0.398
  IC50: 0.353 µM
UNC1215
  AUC: 0.988
  IC50: > 1 µM

## HH (T-cell leukaemia, suspension)
17-AAG
  AUC: 0.902
  IC50: > 1 µM
CCT018159
  AUC: 0.923
  IC50: > 10 µM
BIX02189
  AUC: 0.716
  IC50: 6.35 µM
Dimethyloxalylglycine
  AUC: 0.262
  IC50: 40.8 µM
Doxorubicin
  AUC: 0.678
  IC50: 0.24 µM
OSI-027
  AUC: 0.155
  IC50: < 0.0781 µM
Vismodegib
  AUC: 0.926
  IC50: > 10 µM
VX-11e
  AUC: 0.838
  IC50: > 5.12 µM
TG101348
  AUC: 0.581
  IC50: 1.15 µM
UNC1215
  AUC: 0.97
  IC50: > 1 µM

## DSH1 (bladder, adherent)
17-AAG
  AUC: 0.452
  IC50: 0.0464 µM
CCT018159
  AUC: 0.79
  IC50: 4.23 µM
BIX02189
  AUC: 0.97
  IC50: > 20 µM
Dimethyloxalylglycine
  AUC: 0.366
  IC50: 108 µM
Doxorubicin
  AUC: 0.676
  IC50: 0.193 µM
OSI-027
  AUC: 0.799
  IC50: 9.14 µM
Vismodegib
  AUC: 0.987
  IC50: > 10 µM
VX-11e
  AUC: 0.972
  IC50: > 5.12 µM
TG101348
  AUC: 0.924
  IC50: > 10.2 µM
UNC1215
  AUC: 0.988
  IC50: > 1 µM

## BICR78 (head and neck, adherent)
17-AAG
  AUC: 0.588
  IC50: 0.114 µM
CCT018159
  AUC: 0.843
  IC50: 8.75 µM
BIX02189
  AUC: 0.971
  IC50: > 20 µM
Dimethyloxalylglycine
  AUC: 0.664
  IC50: 770 µM
Doxorubicin
  AUC: 0.682
  IC50: 0.225 µM
OSI-027
  AUC: 0.848
  IC50: 18.6 µM
Vismodegib
  AUC: 0.955
  IC50: > 10 µM
VX-11e
  AUC: 0.952
  IC50: > 5.12 µM
TG101348
  AUC: 0.913
  IC50: > 10.2 µM
UNC1215
  AUC: 0.979
  IC50: > 1 µM

## EW-3 (Ewing sarcoma, adherent)
17-AAG
  AUC: 0.954
  IC50: > 1 µM
CCT018159
  AUC: 0.97
  IC50: > 10 µM
BIX02189
  AUC: 0.86
  IC50: > 20 µM
Dimethyloxalylglycine
  AUC: 0.773
  IC50: 1780 µM
Doxorubicin
  AUC: 0.75
  IC50: 0.378 µM
OSI-027
  AUC: 0.425
  IC50: 0.756 µM
Vismodegib
  AUC: 0.962
  IC50: > 10 µM
VX-11e
  AUC: 0.97
  IC50: > 5.12 µM
TG101348
  AUC: 0.697
  IC50: 2.49 µM
UNC1215
  AUC: 0.934
  IC50: > 1 µM

## HD-MY-Z (Hodgkin lymphoma, adherent)
17-AAG
  AUC: 0.611
  IC50: 0.127 µM
CCT018159
  AUC: 0.874
  IC50: 9.87 µM
BIX02189
  AUC: 0.88
  IC50: > 20 µM
Dimethyloxalylglycine
  AUC: 0.792
  IC50: 1830 µM
Doxorubicin
  AUC: 0.72
  IC50: 0.269 µM
OSI-027
  AUC: 0.234
  IC50: 0.21 µM
Vismodegib
  AUC: 0.947
  IC50: > 10 µM
VX-11e
  AUC: 0.898
  IC50: > 5.12 µM
TG101348
  AUC: 0.701
  IC50: 2.37 µM
UNC1215
  AUC: 0.983
  IC50: > 1 µM

## EFO-21 (ovary, adherent)
17-AAG
  AUC: 0.924
  IC50: > 1 µM
CCT018159
  AUC: 0.96
  IC50: > 10 µM
BIX02189
  AUC: 0.915
  IC50: > 20 µM
Dimethyloxalylglycine
  AUC: 0.51
  IC50: 269 µM
Doxorubicin
  AUC: 0.731
  IC50: 0.397 µM
OSI-027
  AUC: 0.719
  IC50: 6.94 µM
Vismodegib
  AUC: 0.978
  IC50: > 10 µM
VX-11e
  AUC: 0.977
  IC50: > 5.12 µM
TG101348
  AUC: 0.793
  IC50: 7.19 µM
UNC1215
  AUC: 0.977
  IC50: > 1 µM

## SW1417 (large intestine, adherent)
17-AAG
  AUC: 0.89
  IC50: > 1 µM
CCT018159
  AUC: 0.924
  IC50: > 10 µM
BIX02189
  AUC: 0.965
  IC50: > 20 µM
Dimethyloxalylglycine
  AUC: 0.907
  IC50: > 4000 µM
Doxorubicin
  AUC: 0.733
  IC50: 0.335 µM
OSI-027
  AUC: 0.902
  IC50: > 20 µM
Vismodegib
  AUC: 0.984
  IC50: > 10 µM
VX-11e
  AUC: 0.843
  IC50: 4.59 µM
TG101348
  AUC: 0.865
  IC50: > 10.2 µM
UNC1215
  AUC: 0.98
  IC50: > 1 µM

## NCI-H596 (lung adenocarcinoma, adherent)
17-AAG
  AUC: 0.875
  IC50: > 1 µM
CCT018159
  AUC: 0.871
  IC50: > 10 µM
BIX02189
  AUC: 0.927
  IC50: > 20 µM
Dimethyloxalylglycine
  AUC: 0.898
  IC50: > 4000 µM
Doxorubicin
  AUC: 0.571
  IC50: 0.106 µM
OSI-027
  AUC: 0.644
  IC50: 3.53 µM
Vismodegib
  AUC: 0.977
  IC50: > 10 µM
VX-11e
  AUC: 0.974
  IC50: > 5.12 µM
TG101348
  AUC: 0.798
  IC50: 6.63 µM
UNC1215
  AUC: 0.972
  IC50: > 1 µM

## LU-165 (small cell lung carcinoma, suspension)
17-AAG
  AUC: 0.987
  IC50: > 1 µM
CCT018159
  AUC: 0.987
  IC50: > 10 µM
BIX02189
  AUC: 0.941
  IC50: > 20 µM
Dimethyloxalylglycine
  AUC: 0.665
  IC50: 765 µM
Doxorubicin
  AUC: 0.815
  IC50: 0.652 µM
OSI-027
  AUC: 0.855
  IC50: 19.2 µM
Vismodegib
  AUC: 0.988
  IC50: > 10 µM
VX-11e
  AUC: 0.987
  IC50: > 5.12 µM
TG101348
  AUC: 0.961
  IC50: > 10.2 µM
UNC1215
  AUC: 0.941
  IC50: > 1 µM

## EFO-27 (ovary, adherent)
17-AAG
  AUC: 0.573
  IC50: 0.104 µM
CCT018159
  AUC: 0.787
  IC50: 5.57 µM
BIX02189
  AUC: 0.905
  IC50: > 20 µM
Dimethyloxalylglycine
  AUC: 0.612
  IC50: 549 µM
Doxorubicin
  AUC: 0.576
  IC50: 0.109 µM
OSI-027
  AUC: 0.627
  IC50: 3.07 µM
Vismodegib
  AUC: 0.972
  IC50: > 10 µM
VX-11e
  AUC: 0.833
  IC50: 4.5 µM
TG101348
  AUC: 0.884
  IC50: > 10.2 µM
UNC1215
  AUC: 0.978
  IC50: > 1 µM

## MPP-89 (mesothelioma, adherent)
17-AAG
  AUC: 0.709
  IC50: 0.294 µM
CCT018159
  AUC: 0.961
  IC50: > 10 µM
BIX02189
  AUC: 0.807
  IC50: 14.2 µM
Dimethyloxalylglycine
  AUC: 0.667
  IC50: 847 µM
Doxorubicin
  AUC: 0.696
  IC50: 0.273 µM
OSI-027
  AUC: 0.794
  IC50: 12.6 µM
Vismodegib
  AUC: 0.964
  IC50: > 10 µM
VX-11e
  AUC: 0.943
  IC50: > 5.12 µM
TG101348
  AUC: 0.826
  IC50: 8.9 µM
UNC1215
  AUC: 0.976
  IC50: > 1 µM
